Experimental data reported in the antibiotic and cytotoxicity screens of Wong et al. (2023).
This is one part of the list.

How the values were obtained:
[1] = system: HSkMC (human skeletal muscle cells); experiment: cytotoxicity call (relative viability < 0.9); conditions: 10 µM
[2] = system: S. aureus RN4220; experiment: growth inhibition call (relative growth <= 0.2); conditions: 50 µM

SMILES	cytotoxicity call [1]	growth inhibition call [2]
S=C1NCNCN1	inactive	inactive
C[C@H]1CN([C@@H](C)CO)C(=O)c2cc(NC(=O)Cn3cnnn3)ccc2O[C@@H]1CN(C)S(=O)(=O)c1cn(C)cn1	inactive	inactive
C[C@@H]1CN([C@@H](C)CO)C(=O)c2cccc(NS(=O)(=O)c3cccs3)c2O[C@@H]1CN(C)Cc1ccc(Oc2ccccc2)cc1	inactive	inactive
C[C@@H]1CN([C@H](C)CO)C(=O)Cc2cc(NC(=O)C3CC3)ccc2O[C@H]1CN(C)Cc1ccc2c(c1)OCO2	inactive	inactive
C[C@@H]1CN([C@@H](C)CO)C(=O)Cc2cc(NC(=O)Nc3ccc(C(F)(F)F)cc3)ccc2O[C@@H]1CN(C)C(=O)Nc1cccc2ccccc12	active	inactive
COc1cc(C)ccc1S(=O)(=O)N1[C@@H]2CC[C@@H](C2)[C@H]1c1nc2cccc(OCc3ccc(F)cc3)c2[nH]1	inactive	inactive
CN(C)CC(=O)N1[C@H](CO)[C@@H](c2ccc(C3=CCCC3)cc2)C12CN(S(=O)(=O)Cc1ccccc1)C2	inactive	inactive
COc1ccc(S(=O)(=O)N(C)C[C@H]2OCCCC[C@@H](C)Oc3ccc(NC(=O)c4ccccc4)cc3C(=O)N([C@@H](C)CO)C[C@H]2C)cc1	inactive	inactive
C[C@@H]1CCCCO[C@H](CN(C)Cc2ccc(C(=O)O)cc2)[C@H](C)CN([C@H](C)CO)C(=O)c2cc(NS(=O)(=O)c3cccs3)ccc2O1	inactive	inactive
CO[C@H]1CN(C)C(=O)c2ccc(NS(=O)(=O)c3ccccc3)cc2OC[C@H](C)N(C(=O)NC(C)C)C[C@@H]1C	inactive	inactive
O=C(O)c1ccc(CNc2cn[nH]c(=O)n2)cc1	inactive	inactive
NCC(=O)OCc1ccccc1	inactive	inactive
CCSC1=C(C#N)C(=O)N[C@@H](CO)S1	inactive	inactive
Cc1noc(C)c1NC(=O)N(C)C[C@H]1Oc2ccc(NC(=O)C3CC3)cc2CC(=O)N([C@@H](C)CO)C[C@@H]1C	inactive	inactive
C[C@@H]1CCCCO[C@H](CN(C)C(=O)C2CCCCC2)[C@H](C)CN([C@@H](C)CO)C(=O)c2cc(NC(=O)Cc3ccccc3)ccc2O1	inactive	inactive
O=C1CN(N=Cc2ccc(-c3ccc([N+](=O)[O-])cc3)o2)C(=O)[N-]1.[Na+]	inactive	inactive
OCCN1CCN(c2ncnc3c2ncn3[C@H]2CN(Cc3ccccc3)C[C@@H](CO)O2)CC1	inactive	inactive
C[C@@H]1CN([C@@H](C)CO)C(=O)Cc2cc(NC(=O)Cc3cn(C)c4ccccc34)ccc2O[C@H]1CN(C)Cc1ccc(Cl)c(Cl)c1	inactive	inactive
O=C(C[C@@H]1C=C[C@H](NS(=O)(=O)c2ccccc2F)[C@H](CO)O1)NCCCN1CCOCC1	inactive	inactive
CC(C)NC(=O)N(C)C[C@@H]1Oc2ncc(-c3ccc(C(=O)N(C)C)cc3)cc2C(=O)N([C@H](C)CO)C[C@H]1C	inactive	inactive
O=c1[nH]c(=O)c2ccccc2o1	inactive	inactive
COCC#Cc1ccc2c(c1)O[C@H](CN(C)Cc1ccc(F)cc1)[C@H](C)CN([C@@H](C)CO)S2(=O)=O	inactive	inactive
COc1ccc(CN(C)C[C@H]2OCCCC[C@@H](C)Oc3ccc(NS(=O)(=O)c4ccc(C)cc4)cc3C(=O)N([C@@H](C)CO)C[C@@H]2C)cc1	inactive	inactive
C[C@H](CO)N1C[C@H](C)[C@@H](CN(C)C(=O)Nc2ccc3c(c2)OCO3)Oc2ncc(-c3ccncc3)cc2C1=O	inactive	inactive
C[C@@H]1CN([C@@H](C)CO)C(=O)Cc2cc(NS(=O)(=O)c3ccccc3)ccc2O[C@H]1CN(C)Cc1ccc(-c2ccccc2)cc1	inactive	inactive
Cc1ccc(S(=O)(=O)N(C)C[C@H]2Oc3c(NS(=O)(=O)c4cccs4)cccc3C(=O)N([C@H](C)CO)C[C@H]2C)cc1	inactive	inactive
Cc1ccc(S(=O)(=O)Nc2ccc3c(c2)CC(=O)N([C@H](C)CO)C[C@H](C)[C@H](CN(C)S(=O)(=O)c2ccccc2)O3)cc1	inactive	inactive
COc1ccc(S(=O)(=O)N(C)C[C@H]2Oc3ccc(NC(=O)c4ccncc4)cc3C(=O)N([C@@H](C)CO)C[C@@H]2C)cc1	inactive	inactive
C[C@H]1CN([C@@H](C)CO)C(=O)Cc2cc(NC(=O)CCN3CCOCC3)ccc2O[C@H]1CN(C)S(=O)(=O)c1ccc(Cl)cc1	inactive	inactive
